# Several values for one entry are separate records, joined by “and”; a condition that tells them apart may be missing. Identical values can stand only once. Inconclusive results, whose numbers are uncertain, are shown with a selection of clear calls. For some assays here: Potencies of inconclusive entries are doubtful fits and often do not repeat. Activity calls are given as the source filed them. Unless noted, the call rests on the fitted dose curve; in most records, active means well fitted curve in the direction sought with a large enough effect; inconclusive means small, poorly fitted or top-dose-only effect, or another doubt; inactive means no such curve, though single readings can be large; an effect the other way counts as inactive or inconclusive.
# Experiments:
# [1] = biological target: Tyrosyl-DNA phosphodiesterase 1 (Homo sapiens) (UniProt Q9NUW8); assay: Confirmation Assay for Inhibitors of Tyrosyl-DNA Phosphodiesterase (TDP1) (AID 489007); details: recombinant human TDP1 enzymatic activity, dose-response; further: potency means the concentration at half of the fitted maximal effect; nearly all actives have a fitted effect of over 40% in size
# In short: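 Loss of AlphaScreen signal reports Tdp1 cleavage of a dual-labelled DNA substrate. Conditions: 1 nM E. coli-derived enzyme, 15 nM substrate, 15 min compound preincubation, 5 min reaction, 10 min bead incubation, all at room temperature.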
# [2] = biological target: DNA polymerase eta (Homo sapiens) (UniProt Q9Y253); assay: qHTS for Inhibitors of Polymerase Eta: Confirmatory Assay for Cherry-picked Compounds (AID 720502); details: Pol eta primer extension, TAMRA/BHQ fluorescence, 10 min; further: potency means the concentration at half of the fitted maximal effect
# In short: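 Plates with 10 nM enzyme and compound stood 15 min at room temperature before substrate addition (50 nM final). Displacement of the TAMRA reporter from the BHQ-2 template was tracked for 10 min.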
# [3] = biological target: DNA polymerase iota (Homo sapiens) (UniProt Q9UNA4); assay: qHTS for Inhibitors of Polymerase Iota: Confirmatory Assay for Cherry-picked Compounds (AID 720496); details: Pol iota primer extension, TAMRA/BHQ fluorescence; further: potency means the concentration at half of the fitted maximal effect
# In short: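 Extension of a quenched TAMRA-reporter/BHQ-2-template DNA substrate (50 nM) by 10 nM Pol iota after 15 min compound preincubation. Strand-displacement fluorescence (525/598 nm) was read kinetically at 0 and 10 min. Buffer-only wells served as negative control.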
# [4] = biological target: Lethal(3)malignant brain tumor-like protein 1 (Homo sapiens) (UniProt Q9Y468); assay: qHTS Assay for the Inhibitors of L3MBTL1: Hit Validation (AID 540279); details: L3MBTL1 methyl-lysine binding inhibition, biochemical qHTS; further: potency means the concentration at half of the fitted maximal effect; nearly all actives have a fitted effect of over 70% in size
# In short: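 L3MBTL1 (50 nM final) preformed 30 min with biotinylated H3(1-15)K9me1 peptide (75 nM), then compound 30 min at room temperature. Streptavidin donor and nickel chelate acceptor AlphaScreen beads (10 ug/mL each final) added for 30 min before read.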
# [5] = biological target: Mitogen-activated protein kinase 10 (Mus musculus) (UniProt Q61831); assay: JNK3 AlphaScreen Assay (AID 530; active means well fitted curve in either direction with a large enough effect, not every such curve was filed as active; inconclusive means small, poorly fitted or top-dose-only effect, or another doubt;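 further: kinase came from lysate of stimulated human HepG2 cells; signal reports phosphorylation of biotinylated GST-cJun 1-79 at Ser73 with 10 µM ATP; potency means the concentration at half of the fitted maximal effect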); details: JNK3 lysate, c-Jun phosphorylation; activity change, negative = inhibition: at 57.1 µM (top of the series)
# In short: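 HepG2 lysate (IL-1b/TNFa pre-activated) + biotin-GST-cJun 1-79 + anti-pSer73 cJun; cpd titration, 15 min RT; ATP 10 uM start; Tris pH 7.6, MgCl2, DTT, vanadate; beads in EDTA buffer; AlphaScreen.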
# [6] = biological target: 3',5'-cyclic-AMP phosphodiesterase 4B (Homo sapiens) (UniProt Q07343); assay: qHTS Assay for Inhibitors of PDE-IV (AID 607; active means well fitted activation curve with a large enough effect in the main read-out, with a control signal flat, not every such curve was filed as active; inconclusive means small, poorly fitted or top-dose-only effect, or effect the other way, or a change in a side signal; further: potency means the concentration at half of the fitted maximal effect); details: HEK293 ACTOne CNG channel cells, membrane potential fluorescence; activation (PDE inhibition): at 22.9 µM (top of the series)
# In short: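 Cell-based read-out of cAMP via a modified cyclic nucleotide-gated channel and membrane potential dye (535/590 nm) in HEK293 cells expressing PDE4 endogenously. Compounds tested up to 22.9 uM final; 100 uM RO 20-1724 reference.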
# [7] = biological target: Cytochrome P450 2C9 (Homo sapiens) (UniProt P11712); assay: qHTS Assay for Inhibitors and Substrates of Cytochrome P450 2C9 (AID 883); details: recombinant CYP2C9, luciferin-H luminescence, 60 min; activity change, negative = inhibition: at 57.1 µM (top of the series); further: potency means the concentration at half of the fitted maximal effect; nearly all actives have a fitted effect of over 60% in size
# In short: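 Human CYP2C9 (10nM) with Luciferin-H at 100uM (its KM) in 25mM KPO4; compound preincubated 10 min at 37C, then NADPH regeneration for 60 min at 37C. Luciferin read by luminescence after detection reagent; normalized to 57uM sulphaphenazole as full inhibition.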
# [8] = biological target: Cytochrome P450 3A4 (Homo sapiens) (UniProt P08684); assay: qHTS Assay for Inhibitors and Substrates of Cytochrome P450 3A4 (AID 884); further: potency means the concentration at half of the fitted maximal effect; nearly all actives have a fitted effect of over 50% in size
# In short: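 Luminescent readout of luciferin produced by CYP3A4 (20 nM) dealkylation of Luciferin-PPXE, 25 uM (its KM). NADPH-driven reaction ran 60 min at RT after 10 min compound preincubation; data scaled to 57 uM ketoconazole as 100% inhibition.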
# [9] = biological target: Ubiquitin carboxyl-terminal hydrolase 1 (Homo sapiens) (UniProt O94782); assay: Inhibitors of USP1/UAF1: Pilot qHTS (AID 504865); further: potency means the concentration at half of the fitted maximal effect;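 further: rhodamine fluorescence freed from ubiquitin-rhodamine substrate followed over time; nearly all actives have a fitted effect of over 35% in size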; on activity change, negative = inhibition: top concentration of the series differs between compounds; on the % scale 0 is the no-effect control and ±100 the full control effect
# In short: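 Enzyme-free wells gave the negative control, while test wells held 1nM USP1/UAF1 preincubated with compound for 15 min at room temperature. Ub-Rho at 150nM final started the reaction, and fluorescence at 480/540 nm was recorded kinetically.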
# [10] = qHTS for Inhibitors of WRN Helicase: Thiazole Orange DNA Binding Counterscreen (AID 720499);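 further: drop in dye fluorescence marks compound binding to DNA; potency means the concentration at half of the fitted maximal effect; nearly all actives have a fitted effect of over 60% in size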
# In short: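 To exclude WRN hits acting through DNA binding, fluorescence of 100 nM thiazole orange bound to 50 nM unlabeled DNA is read (ex 480, em 530 nm) 15 min after compound addition at room temperature.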
# [11] = qHTS Assay for Identification of Small Molecule Agonists for Hypoxia Response Element Signaling Pathway (AID 914; active means well fitted activation curve with a large enough effect in the signal ratio, with a control signal flat, not every such curve was filed as active; inconclusive means small, poorly fitted or top-dose-only effect, or effect the other way, or a change in a side signal; the % refers to the signal ratio; further: top concentration of the series differs between compounds; % of control where 0% means no effect); details: ME-180 (cervical carcinoma) HRE-bla reporter, beta-lactamase ratio, CoCl2, 17 h; activation: hits give high values
# In short: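 Read-out: CCF4 FRET ratio of 460nm to 530nm emission (excitation 405nm) after 2.5 hours at room temperature, taken from HRE-bla ME-180 cells that had been exposed to compound and EC50 CoCl2 for 17 hours.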
# [12] = biological target: ATP-dependent 6-phosphofructokinase (Trypanosoma brucei brucei) (UniProt O15648); assay: qHTS Assay to Find Inhibitors of T. brucei phosphofructokinase: hit validation (AID 492961);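 further: luminescence reports ADP formed as PFK phosphorylates fructose-6-phosphate with ATP; on the % scale 0 is the no-effect control and ±100 the full control effect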
# In short: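 Compounds titrated; %activity normalized to 0x and 1x enzyme controls, curve-fitted. Readout: ADP-Glo luminescence after 45 min room-temperature reaction of 1.25 nM PFK, 0.1 mM ATP, 0.5 mM F6P, pH 8.0.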
# [13] = S16 Schwann cell PMP22 intronic element beta-lactamase assay (AID 624044; calls by dose curve;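 further: 0% = DMSO and -100% = potassium clavulanate positive control; nearly all actives have a fitted effect of over 15% in size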); details: S16 rat Schwann cells, PMP22 element beta-lactamase FRET, 24 h; ratio activity, negative = inhibition: at 38.3 µM (top of the series) unless noted
# In short: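 Beta-lactamase reporter under a PMP22 intronic regulatory element in stable S16 rat Schwann cells; 24 h compound exposure. 460 nm blue signal normalized between DMSO (0%) and potassium clavulanate, with 535 nm FRET tracking viability; curves classed by r2 and response.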
# Tags describe the fitted curve by direction and shape.
# Chain of UniProt Q9Y253 (Q9Y253 whole entry, looked up): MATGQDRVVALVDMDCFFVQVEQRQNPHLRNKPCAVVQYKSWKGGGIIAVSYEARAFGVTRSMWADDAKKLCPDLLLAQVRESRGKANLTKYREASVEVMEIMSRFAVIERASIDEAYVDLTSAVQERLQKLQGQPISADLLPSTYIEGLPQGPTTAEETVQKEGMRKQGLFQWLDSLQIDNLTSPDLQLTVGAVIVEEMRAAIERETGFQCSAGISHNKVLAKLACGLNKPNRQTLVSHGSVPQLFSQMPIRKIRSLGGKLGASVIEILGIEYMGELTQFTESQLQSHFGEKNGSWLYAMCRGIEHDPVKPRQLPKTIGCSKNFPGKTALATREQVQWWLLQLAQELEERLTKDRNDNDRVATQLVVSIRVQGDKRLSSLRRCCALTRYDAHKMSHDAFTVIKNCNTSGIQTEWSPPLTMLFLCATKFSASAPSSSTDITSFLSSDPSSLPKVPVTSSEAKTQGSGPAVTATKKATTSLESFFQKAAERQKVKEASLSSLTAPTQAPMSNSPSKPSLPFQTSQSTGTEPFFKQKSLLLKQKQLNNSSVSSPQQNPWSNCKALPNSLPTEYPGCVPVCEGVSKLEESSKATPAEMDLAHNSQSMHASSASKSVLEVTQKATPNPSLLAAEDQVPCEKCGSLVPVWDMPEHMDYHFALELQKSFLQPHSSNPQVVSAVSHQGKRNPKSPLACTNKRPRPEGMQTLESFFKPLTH
# Chain of UniProt Q9NUW8 (Q9NUW8 whole entry, looked up): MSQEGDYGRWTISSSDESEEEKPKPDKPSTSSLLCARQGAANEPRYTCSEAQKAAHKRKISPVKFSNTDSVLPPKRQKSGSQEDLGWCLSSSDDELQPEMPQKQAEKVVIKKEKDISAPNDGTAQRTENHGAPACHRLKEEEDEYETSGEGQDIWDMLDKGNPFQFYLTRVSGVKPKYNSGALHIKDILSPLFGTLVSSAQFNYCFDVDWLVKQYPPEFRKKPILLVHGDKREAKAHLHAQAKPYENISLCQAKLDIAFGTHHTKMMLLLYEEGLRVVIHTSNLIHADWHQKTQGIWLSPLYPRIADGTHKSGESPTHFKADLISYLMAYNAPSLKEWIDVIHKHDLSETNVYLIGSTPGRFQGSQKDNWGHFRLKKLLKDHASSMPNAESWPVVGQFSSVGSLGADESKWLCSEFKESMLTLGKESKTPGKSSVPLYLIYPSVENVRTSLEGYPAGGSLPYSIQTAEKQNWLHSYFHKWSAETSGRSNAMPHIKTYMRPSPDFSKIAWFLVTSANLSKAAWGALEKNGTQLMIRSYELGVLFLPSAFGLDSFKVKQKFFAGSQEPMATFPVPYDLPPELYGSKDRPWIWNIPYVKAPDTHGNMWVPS
# Chain of UniProt O94782 (O94782 whole entry, looked up): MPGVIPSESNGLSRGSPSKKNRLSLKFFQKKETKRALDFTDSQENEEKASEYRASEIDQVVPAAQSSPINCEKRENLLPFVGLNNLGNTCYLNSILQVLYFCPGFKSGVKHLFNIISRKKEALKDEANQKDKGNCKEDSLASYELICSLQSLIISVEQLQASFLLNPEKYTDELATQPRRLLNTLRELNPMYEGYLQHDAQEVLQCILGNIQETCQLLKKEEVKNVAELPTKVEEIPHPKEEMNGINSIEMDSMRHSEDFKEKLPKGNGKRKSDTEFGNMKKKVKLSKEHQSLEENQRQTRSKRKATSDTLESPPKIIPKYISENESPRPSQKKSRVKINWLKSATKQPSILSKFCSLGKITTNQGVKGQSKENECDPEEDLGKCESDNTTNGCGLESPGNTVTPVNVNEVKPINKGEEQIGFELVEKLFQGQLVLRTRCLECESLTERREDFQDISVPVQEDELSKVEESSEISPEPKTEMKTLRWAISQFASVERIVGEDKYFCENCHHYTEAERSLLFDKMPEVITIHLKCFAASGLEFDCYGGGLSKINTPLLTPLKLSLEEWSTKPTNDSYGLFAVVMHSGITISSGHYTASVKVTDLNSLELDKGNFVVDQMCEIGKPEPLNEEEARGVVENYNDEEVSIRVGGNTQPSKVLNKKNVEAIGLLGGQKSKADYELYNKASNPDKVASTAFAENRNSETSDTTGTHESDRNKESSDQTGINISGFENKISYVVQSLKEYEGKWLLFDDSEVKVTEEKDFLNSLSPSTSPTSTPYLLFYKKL
# Chain of UniProt P08684 (P08684 whole entry, looked up): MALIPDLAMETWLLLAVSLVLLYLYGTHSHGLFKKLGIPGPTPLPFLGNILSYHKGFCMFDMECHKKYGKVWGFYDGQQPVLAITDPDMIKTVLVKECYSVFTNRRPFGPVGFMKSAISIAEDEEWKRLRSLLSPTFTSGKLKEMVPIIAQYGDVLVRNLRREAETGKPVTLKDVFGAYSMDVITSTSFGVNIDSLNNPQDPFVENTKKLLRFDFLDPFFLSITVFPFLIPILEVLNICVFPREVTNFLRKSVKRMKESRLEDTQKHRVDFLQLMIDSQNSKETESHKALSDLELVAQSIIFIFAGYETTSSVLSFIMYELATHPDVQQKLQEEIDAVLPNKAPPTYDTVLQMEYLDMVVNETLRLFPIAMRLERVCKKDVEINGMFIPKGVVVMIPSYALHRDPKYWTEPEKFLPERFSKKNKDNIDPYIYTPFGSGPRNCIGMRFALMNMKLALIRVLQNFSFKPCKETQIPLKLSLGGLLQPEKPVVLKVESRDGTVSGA
# Chain of UniProt Q07343 (Q07343 whole entry, looked up): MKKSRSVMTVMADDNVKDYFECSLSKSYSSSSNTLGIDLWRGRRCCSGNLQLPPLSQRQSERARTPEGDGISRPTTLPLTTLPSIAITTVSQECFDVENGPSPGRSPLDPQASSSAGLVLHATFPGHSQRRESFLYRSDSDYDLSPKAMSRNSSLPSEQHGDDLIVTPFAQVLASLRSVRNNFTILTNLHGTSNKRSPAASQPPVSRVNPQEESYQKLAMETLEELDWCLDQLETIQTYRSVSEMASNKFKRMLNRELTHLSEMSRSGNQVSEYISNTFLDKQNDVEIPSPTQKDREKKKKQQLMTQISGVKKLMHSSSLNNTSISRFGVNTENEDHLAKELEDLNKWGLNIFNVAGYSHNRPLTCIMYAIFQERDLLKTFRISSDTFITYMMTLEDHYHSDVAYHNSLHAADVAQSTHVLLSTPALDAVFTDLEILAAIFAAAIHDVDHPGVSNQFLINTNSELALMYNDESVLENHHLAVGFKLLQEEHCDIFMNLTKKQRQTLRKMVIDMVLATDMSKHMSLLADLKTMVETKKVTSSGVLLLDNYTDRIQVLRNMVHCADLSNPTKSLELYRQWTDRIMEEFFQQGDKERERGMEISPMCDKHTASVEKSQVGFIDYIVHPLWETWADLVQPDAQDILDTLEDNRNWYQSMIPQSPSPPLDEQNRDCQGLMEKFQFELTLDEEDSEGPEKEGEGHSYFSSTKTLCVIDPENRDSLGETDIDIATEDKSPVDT
# Chain of UniProt Q9UNA4 (Q9UNA4 whole entry, looked up): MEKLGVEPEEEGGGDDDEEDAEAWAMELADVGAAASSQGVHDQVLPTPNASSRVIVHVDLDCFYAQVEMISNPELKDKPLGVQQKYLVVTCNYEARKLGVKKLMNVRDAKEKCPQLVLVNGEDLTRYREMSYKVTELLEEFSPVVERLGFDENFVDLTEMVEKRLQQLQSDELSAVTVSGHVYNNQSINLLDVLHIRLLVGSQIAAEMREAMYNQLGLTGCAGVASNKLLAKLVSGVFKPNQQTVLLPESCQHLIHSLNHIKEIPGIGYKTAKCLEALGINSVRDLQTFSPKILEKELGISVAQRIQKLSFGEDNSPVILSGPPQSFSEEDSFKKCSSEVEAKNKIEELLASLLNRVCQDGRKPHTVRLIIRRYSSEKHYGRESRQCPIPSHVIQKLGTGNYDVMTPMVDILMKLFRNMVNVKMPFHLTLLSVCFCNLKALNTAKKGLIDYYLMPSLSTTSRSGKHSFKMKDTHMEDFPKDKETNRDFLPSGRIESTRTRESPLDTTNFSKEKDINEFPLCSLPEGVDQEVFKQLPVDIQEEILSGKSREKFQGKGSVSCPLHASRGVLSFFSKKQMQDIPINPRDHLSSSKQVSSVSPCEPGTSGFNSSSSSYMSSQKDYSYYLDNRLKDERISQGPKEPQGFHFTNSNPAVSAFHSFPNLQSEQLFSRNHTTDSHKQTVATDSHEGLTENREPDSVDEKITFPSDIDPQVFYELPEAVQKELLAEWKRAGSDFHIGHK
# Chain of UniProt O15648 (O15648 whole entry, looked up): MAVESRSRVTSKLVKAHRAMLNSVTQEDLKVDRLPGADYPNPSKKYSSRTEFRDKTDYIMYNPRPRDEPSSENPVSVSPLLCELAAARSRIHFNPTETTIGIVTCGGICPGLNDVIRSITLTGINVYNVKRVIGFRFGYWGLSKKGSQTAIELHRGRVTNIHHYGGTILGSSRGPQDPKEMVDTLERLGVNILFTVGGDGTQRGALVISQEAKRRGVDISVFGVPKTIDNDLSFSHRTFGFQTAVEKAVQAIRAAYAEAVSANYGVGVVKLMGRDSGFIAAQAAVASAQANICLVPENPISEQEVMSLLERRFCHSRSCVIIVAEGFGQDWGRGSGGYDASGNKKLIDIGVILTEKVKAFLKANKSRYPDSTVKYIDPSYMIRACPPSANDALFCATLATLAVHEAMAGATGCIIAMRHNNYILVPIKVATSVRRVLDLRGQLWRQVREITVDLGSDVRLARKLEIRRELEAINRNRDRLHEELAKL
smiles,measurement,setting,value
COc1ccc(/C=C/C(=O)O)cc1S(=O)(=O)NC1CCS(=O)(=O)C1 (stereo not given),Potency,[1],"inconclusive: 126 µM [inhibitor, single point]"
same,Potency,[2],"inconclusive: 84.9 µM [inhibitor, single point]"
Cc1c(C)n(C(=O)CSc2nc3ccccc3[nH]2)c2ccccc12,Potency,[1],"inconclusive: 15.8 µM [inhibitor, partial curve, poor fit]"
same,Potency,[3],"inconclusive: 47.4 µM [inhibitor, partial curve]"
Cc1cc(N/N=C/c2ccc(O)cc2)nc(NS(=O)(=O)c2ccccc2)n1,Potency,[1],"inconclusive: 35.5 µM [inhibitor, full curve]"
same,Potency,[2],"inconclusive: 95.3 µM [inhibitor, single point]"
O=C(O)c1ccc(Cn2nnc3sc4c(c3c2=O)CCCC4)cc1,Potency,[1],"inconclusive: 28.2 µM [inhibitor, full curve]"
same,Potency,[2],"inconclusive: 84.9 µM [inhibitor, single point]"
O=C(CSc1nc(-c2ccccc2)nc2ccc(F)cc12)Nc1ccc(C(=O)O)cc1,Potency,[1],"inconclusive: 126 µM [inhibitor, single point]"
same,Potency,[4],"inconclusive: 23.8 µM [inhibitor, single point]"
O=S(=O)(NCCCCCCc1ccccc1)c1cccc2c(Cl)cccc12,Potency,[5],"inconclusive: 39.8 µM [activator, partial curve]"
same,Potency,[6],"inconclusive: 15.1 µM [rising, single point]"
same,Potency,[7],"inconclusive: 5.01 µM [inhibitor, full curve]"
same,Potency,[8],active: 2.51 µM
same,Potency,[1],"inconclusive: 31.6 µM [inhibitor, full curve, poor fit]"
same,Potency,[9],"inconclusive: 14.1 µM [inhibitor, full curve, poor fit]"
O=C(CSc1nc2ccccc2c(=O)n1-c1ccccc1)NC(=O)CN1CCCC1=O,Potency,[1],"inconclusive: 31.6 µM [inhibitor, full curve]"
same,Potency,[2],"inconclusive: 84.9 µM [inhibitor, single point]"
O=C(O)c1cc(-c2ccc(/C=C3\NC(=O)N(c4ccc(Cl)cc4)C3=O)o2)ccc1Cl,Potency,[1],"inconclusive: 11.2 µM [inhibitor, partial curve]"
same,Potency,[10],"inconclusive: 19.2 µM [inhibitor, partial curve]"
Cc1ccccc1-c1cc(-n2ccnc2)ncn1,Potency,[1],"inconclusive: 5.01 µM [inhibitor, full curve]"
same,Potency,[9],inactive
O=C(O)COn1c(-c2ccccc2)nc2ccc([N+](=O)[O-])cc21,Potency,[1],"inconclusive: 10 µM [inhibitor, full curve]"
same,Potency,[2],"inconclusive: 84.9 µM [inhibitor, single point]"
CN(C)/C=C/C=C1C(=O)CCCC1=O,Potency,[1],active: 89.1 µM
same,Potency,[2],active: 37.9 µM
O=C(O)c1ccc(/C=C/c2nc3sc4c(c3c(=O)[nH]2)CCC4)cc1,Potency,[1],active: 112 µM
same,Potency,[2],"inconclusive: 95.3 µM [inhibitor, single point]"
COc1cc(C)c2c(c1C=O)Oc1c(c(C)c(O)c3c1C(O)OC3=O)OC2=O (stereo not given),Potency,[1],"inconclusive: 44.7 µM [inhibitor, single point] and inconclusive: 35.5 µM [inhibitor, single point]"
same,Potency,[9],active: 56.2 µM
COC(=O)c1cc(NC(=O)c2ccc3c(c2)NC(=O)c2ccccc2S3)cc(C(=O)OC)c1,Potency,[1],active: 25.1 µM
same,Potency,[2],"inconclusive: 95.3 µM [inhibitor, single point]"
CS(=O)(=O)c1ccc([C@H](O)[C@H](CF)NC(=O)C(Cl)Cl)cc1,activation,[11],inconclusive: 33.5%
same,Potency,[12],inactive
same,"ratio activity, negative = inhibition",[13],inconclusive: -7.91% [cytotoxic] [at 17.1 µM]

# — PubChem BioAssay (NCATS)
